The text below walks through data of patent US5739291, “Glutamate receptor antibodies” (The Salk Institute For Biological Studies, dated 1998).

The test has as its target T1, glutamate receptor subunit GluR3 (rat).
T1 chain: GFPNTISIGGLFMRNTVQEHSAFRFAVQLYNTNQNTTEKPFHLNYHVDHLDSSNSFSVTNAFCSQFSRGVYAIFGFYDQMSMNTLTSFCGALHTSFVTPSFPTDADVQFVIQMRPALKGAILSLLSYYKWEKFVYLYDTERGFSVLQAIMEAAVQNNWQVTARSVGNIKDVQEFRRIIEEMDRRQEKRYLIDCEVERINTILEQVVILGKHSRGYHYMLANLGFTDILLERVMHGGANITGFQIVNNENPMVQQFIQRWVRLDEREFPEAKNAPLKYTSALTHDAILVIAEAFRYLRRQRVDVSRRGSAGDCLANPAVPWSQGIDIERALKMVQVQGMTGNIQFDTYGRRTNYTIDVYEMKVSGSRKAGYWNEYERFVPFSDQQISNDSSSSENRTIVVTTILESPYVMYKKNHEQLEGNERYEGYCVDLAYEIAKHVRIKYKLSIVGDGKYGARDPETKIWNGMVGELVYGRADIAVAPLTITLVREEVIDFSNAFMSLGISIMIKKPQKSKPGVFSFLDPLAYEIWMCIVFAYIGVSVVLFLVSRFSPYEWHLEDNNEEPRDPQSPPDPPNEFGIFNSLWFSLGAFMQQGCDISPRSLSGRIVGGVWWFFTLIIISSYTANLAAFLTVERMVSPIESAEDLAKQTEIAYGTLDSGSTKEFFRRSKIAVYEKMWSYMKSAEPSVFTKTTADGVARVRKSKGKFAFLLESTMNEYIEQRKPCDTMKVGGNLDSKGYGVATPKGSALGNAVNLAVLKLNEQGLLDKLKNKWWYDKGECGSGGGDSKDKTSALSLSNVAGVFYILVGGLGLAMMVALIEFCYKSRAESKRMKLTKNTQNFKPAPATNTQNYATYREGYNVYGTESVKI
Kind of test: cell-based or functional assay.

B1: glutamate receptor subunit GluR2 (receptor)
chain: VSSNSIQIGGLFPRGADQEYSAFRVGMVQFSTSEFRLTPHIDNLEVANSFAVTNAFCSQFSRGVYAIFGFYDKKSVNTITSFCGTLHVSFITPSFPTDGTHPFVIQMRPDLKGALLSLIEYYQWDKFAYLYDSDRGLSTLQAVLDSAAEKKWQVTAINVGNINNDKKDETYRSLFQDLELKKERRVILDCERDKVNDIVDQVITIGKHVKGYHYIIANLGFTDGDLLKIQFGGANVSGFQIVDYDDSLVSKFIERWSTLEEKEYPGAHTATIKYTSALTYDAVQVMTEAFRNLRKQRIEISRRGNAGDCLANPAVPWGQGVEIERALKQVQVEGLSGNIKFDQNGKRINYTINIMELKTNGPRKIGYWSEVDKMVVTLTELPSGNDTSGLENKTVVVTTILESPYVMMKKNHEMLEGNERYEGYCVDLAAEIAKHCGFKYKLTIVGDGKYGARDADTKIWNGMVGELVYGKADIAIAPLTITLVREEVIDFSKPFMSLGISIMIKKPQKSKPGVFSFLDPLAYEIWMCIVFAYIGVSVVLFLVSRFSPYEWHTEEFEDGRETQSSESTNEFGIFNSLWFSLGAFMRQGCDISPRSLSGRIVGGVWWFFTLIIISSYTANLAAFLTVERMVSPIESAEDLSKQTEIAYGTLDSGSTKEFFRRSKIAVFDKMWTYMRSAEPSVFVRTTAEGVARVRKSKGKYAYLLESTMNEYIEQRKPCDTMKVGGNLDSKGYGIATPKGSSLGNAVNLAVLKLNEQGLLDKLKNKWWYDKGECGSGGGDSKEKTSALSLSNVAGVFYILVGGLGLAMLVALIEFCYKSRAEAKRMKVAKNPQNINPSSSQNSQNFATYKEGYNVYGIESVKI
Turning to B1, the “KA-evoked currents in Xenopus oocytes on co-expression, against the summed responses of singly injected oocytes” value was approximately 2 fold.
